Variants at the floor of the assay are shown more often than the library holds them.
B1: TPR 5TU (parent)
chain: GGAUCUUCUCGAUCUAACAAAAAAGACAAAUCUGCCACAAAGCUUGAGAGCAUCUUCGGAUGCAGAGGCGGCAGCCUUCGGUGGCGCGAUAGCGCCAACGUUCUCAACUAUGACACGCAAAACGCGUGCUCCGUUGAAUGGAGUUUAUCAUG

Variants of: B1
Assay: polymerase ribozyme fitness, log enrichment relative to wild type (log ratio); higher = more active; in vitro selection for triplet polymerase activity
Procedure, shortened: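 Each subunit of a heterodimeric triplet polymerase ribozyme was mutagenized into a library by PCR, transcribed, and subjected to one round of in vitro selection, run in triplicate. Libraries were annealed with a biotinylated primer, the partner subunit and triplets, incubated frozen at −7 °C, and extended constructs were gel-excised, captured on streptavidin beads and recovered by RT-PCR. Input and output libraries were sequenced on Illumina, keeping genotypes with ≥10 input reads and ≥1 read per output. Fitness is log base 2 of genotype enrichment divided by wild-type enrichment, from inverse-variance-weighted replicate averages.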

Row | Variant | polymerase ribozyme fitness (log ratio)
1 | A19G G34U G50A C75U U146C A150U | ≤ -4.2
2 | C18G C54A U61A U109G A113U G140A | ≤ -4.2
3 | A20C A24U A52U C76U G80C C85G G86U C99A G100A | ≤ -4.2
4 | A20C C43A U61C C87U A150C | ≤ -4.2
5 | A20C C54U U78A C93A A97U | ≤ -4.2
6 | A19G A21U C75U C105G | ≤ -4.2
7 | A19G G58U G62A C96G C108G U151A | ≤ -4.2
8 | A19U A26U C75A U77G C95A A113U | ≤ -4.2
9 | A19U A40G C99A G124C U146A | ≤ -4.2
10 | A19U U31G U135G U148G | ≤ -4.2
11 | A19U G74C A147C | ≤ -4.2
12 | A19C C69A C76A A91G C114U C125A | ≤ -4.2
13 | A19C A30U G42A C114G U139A G140U | ≤ -4.2
14 | A19G U77A | ≤ -4.2
15 | A19C G68U G84U G126A C131A | ≤ -4.2
16 | C18G G88A | ≤ -4.2
17 | A20C C35A G48A C114G | ≤ -4.2
18 | A19G A30U C32U A39C U45C U148A | ≤ -4.2
19 | A19G G65C C149A | ≤ -4.2
20 | A19C C43U C72G C129G | ≤ -4.2
21 | A19U U45G A52U U53A C57U G68A C87G A106G G117A | ≤ -4.2

Row | Variant | polymerase ribozyme fitness (log ratio)
22 | A19G A52C C69A C87A C125G G143A U144A A150U | ≤ -4.2
23 | A19G A26G A91U C93A A107C | ≤ -4.2
24 | A19U C57U G80A C93U G136A A138C A147C | ≤ -4.2
25 | A20C G34U A60C G83C C99G | ≤ -4.2
26 | C18G C93U C149A | ≤ -4.2
27 | A20C A30U G80A G83C C87U C108A | ≤ -4.2
28 | A19C U45A C51A A107G A110C | ≤ -4.2
29 | C18G G58A U61A C87A C93G C96G A115G G136U | ≤ -4.2
30 | A19G A41C A47U G50C U53C C93A G128U | ≤ -4.2
31 | A19G A23U A26U G46A U55A C87A C105A G143C | ≤ -4.2
32 | A19C A24G A26U A37C G94A U151C | ≤ -4.2
33 | A19U U77A C118U C125G A138G A142U U148A | ≤ -4.2
34 | A19U U33G U56G | ≤ -4.2
35 | A20C A49C G62C C85G A150G | ≤ -4.2
36 | A19C A52G C54A G68C C75A C85U C96A A122U A147C | ≤ -4.2
37 | A20C C36G G58A C69G U148A | ≤ -4.2
38 | A20C C79G U127G U145A | ≤ -4.2
39 | C18U A19G A47C G48C U61G A66G A106U A107U | ≤ -4.2
40 | A19U A29G U53C G58A U102A A107G C149U | ≤ -4.2
41 | A19C C76G G92U C103G A120U | ≤ -4.2
42 | A19C G25A U55A A113C | ≤ -4.2

Row | Variant | polymerase ribozyme fitness (log ratio)
43 | A19U G65A C93A U148C | ≤ -4.2
44 | C18U C43A G48U | ≤ -4.2
45 | A19C A28G U61A U102C | ≤ -4.2
46 | A19U A26U C35U U82C G83A G124A G133U U139C G141U U151A | ≤ -4.2
47 | A19U U33A C51A G143C C149G | ≤ -4.2
48 | A19C A24G U33G A91C C99U G126U A142C | ≤ -4.2
49 | A20C C36U G48U C57G A107G A113G C125A | ≤ -4.2
50 | A20C A23G C27U G59A U82C G92U C116U | ≤ -4.2
51 | A19U G34U A49C C54G C75A G86A U134G C149G | ≤ -4.2
52 | C18U U33C A52U G86A C118A G141A | ≤ -4.2
53 | A19U A39U C43U C79G C95U U130G | ≤ -4.2
54 | A19G A49U G70A U148G | ≤ -4.2
55 | A19C G68C C87A | ≤ -4.2
56 | C18G G25C C32U G92C A150C | ≤ -4.2
57 | C18U C149A | ≤ -4.2
58 | C18G G50A C79G U134G | ≤ -4.2
59 | A19U G46A G50U C76U G80U G84A G126A | ≤ -4.2
60 | A19C A26C C32G C75A A106G U135G | ≤ -4.2
61 | A20C A23G G81A C93A U104A A119C | ≤ -4.2
62 | C18U A26C A52C C69A A73G C85G G86U C99A U146A | ≤ -4.2
63 | A19U G42A G67A C85G U109A A120G | ≤ -4.2

Row | Variant | polymerase ribozyme fitness (log ratio)
64 | C18G G25C A28C C54G A106C U111G | ≤ -4.2
65 | A19C A20C G71U C76A C79A C87A | ≤ -4.2
66 | A19U A20U A52C U55A A60U C93A A107G U134A | ≤ -4.2
67 | C18U A23U C93G U101G C108U A120U U135C G152A | ≤ -4.2
68 | C18G G46A C75A U82A C87A A115G A137C | ≤ -4.2
69 | A19U G70A C87U A107G U145G | ≤ -4.2
70 | A19U A24U U44A G84A C93A A121G C131U A142C | ≤ -4.2
71 | A19U A52U C57G G58A C95U C123U G126U A138U | ≤ -4.2
72 | A19C A21C A26C U44A C57A U61A G68A G86A G140U | ≤ -4.2
73 | A19G A40U G65C G136C A142G | ≤ -4.2
74 | A19C A40G C87G | ≤ -4.2
75 | A19C A21C G25U A39G G42C A66G C75G C79U C96U C123G | ≤ -4.2
76 | C18U A23C A24C C36U G86U U130C U139C U146C | ≤ -4.2
77 | C18G G133U U139C U145G A150G | ≤ -4.2
78 | C18U G59A C93U U104G G136U C149A | ≤ -4.2
79 | A19U C54A U90G A107C G117U U139G | ≤ -4.2
80 | A19C C27U U90G G128U A138G U144C | ≤ -4.2
81 | C18G U33C G46A C51A C87G C96U A97U A110C U145C | ≤ -4.2
82 | A19U A40U G58C G68A C87A U104G G136A G143U U151G G152A | ≤ -4.2
83 | C18U A37C A52G G94A C114A | ≤ -4.2
84 | A19U A30C C57A A73C G92A G112A | ≤ -4.2

Reference: the RNAGym collection of RNA variant scans (doi:10.1073/pnas.2313332121)
